# Measurements published in publication PMC13083723 (Patterns, 2026).
# Screen size: about 5,400 compounds; about 190 (3.5%) showed an effect of 50% or more. The list shows a part of the results.
# System: Vero-E6
# Assay: primary screen, phospholipidosis by LipidTOX staining; higher = more effect of the substance
# Settings: 10 µM
# Procedure, shortened: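 Single-concentration screen at 10 μM, with DMSO 0.1 v/v % and amiodarone 10 μM as controls. Read-out is LipidTOX Red phospholipid staining, which tolerates aldehyde fixation, in Vero-E6 cells.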
row,SMILES,result_ITMP [%]
1,C#C[C@]1(O)CC[C@H]2[C@@H]3CCC4=CC(=NO)CC[C@@H]4[C@H]3CC[C@@]21CC (mixture of isomers),-0.74
2,CCN(CC)CCCN(c1ccccc1)C1Cc2ccccc2C1,51.9
3,Cc1cc(Nc2ncc(Cl)c(Nc3ccccc3S(=O)(=O)C(C)C)n2)c(OC(C)C)cc1C1CCNCC1,50.9
4,COCCCOc1cc(C[C@@H](C[C@H](N)[C@@H](O)C[C@H](C(=O)NCC(C)(C)C(N)=O)C(C)C)C(C)C)ccc1OC,2.65
5,N#CC[C@@H](C1CCCC1)n1cc(-c2ncnc3[nH]ccc23)cn1,-6.34
6,OCCC#Cc1nc(-c2ccc(F)cc2)c(-c2ccncc2)n1CCCc1ccccc1,3.49
7,C#C[C@]1(OC(C)=O)CC[C@H]2[C@@H]3CCC4=CC(=O)CC[C@@H]4[C@H]3CC[C@@]21C,-3.91
8,CCCCOC(=O)c1ccc(O)cc1,1.55
9,CCCc1nc2c(C)cc(-c3nc4ccccc4n3C)cc2n1Cc1ccc(-c2ccccc2C(=O)O)cc1,-12.6
10,CC(C)(C)C1CCc2c(sc(NC(=O)c3ccco3)c2C(=O)O)C1 (stereo not drawn),-2.3
11,Cc1noc(C)c1-c1cc(O)cc(C(O)c2ccccc2)c1 (stereo not drawn),-0.42
12,COC1(CS(=O)c2ccccc2)CCN(CCc2c[nH]c3ccc(F)cc23)CC1 (stereo not drawn),14.5
13,CC1=CC(=O)c2ccccc2C1=O,-3.67
14,Cc1ccc(C(=O)N(CCCN)[C@@H](c2nc3cc(Cl)ccc3c(=O)n2Cc2ccccc2)C(C)C)cc1,75.7
15,Nc1nccc(-c2ccc3noc(-c4ccc(Cl)cc4)c3c2)n1,0.29
16,CCCC(C)C1(CC)C(=O)N=C([S-])NC1=O (stereo not drawn),0.1
17,CC[N+](CC)(CCNC(=O)C(=O)NCC[N+](CC)(CC)Cc1ccccc1Cl)Cc1ccccc1Cl,-0.68
18,COc1cc2ncnc(Nc3ccc(F)c(Cl)c3)c2cc1NC(=O)/C=C/CN1CCCCC1,19.4
19,CC(C)N(CCc1c[nH]c2ccccc12)C(C)C,6.36
20,CCCCC1C(=O)N(c2ccccc2)N(c2ccccc2)C1=O,-3.37
21,C[C@@H]1C(=O)O[C@H]2[C@H](O)C34C5C[C@@H](C(C)(C)C)[C@]36[C@@H](OC(=O)[C@@H]6O)O[C@@]4(C(=O)O5)[C@@]12O (stereo partly drawn),-1.63

row,SMILES,result_ITMP [%]
1,C[C@]12C=CC(=O)C=C1CCC1C2C(=O)C[C@@]2(C)C1CC[C@]2(O)C(=O)CO (stereo partly drawn),-1.73
2,CN1C2CCC1CC(OC(c1ccccc1)c1ccc(Cl)cc1)C2 (stereo not drawn),98.3
3,O=S(=O)(c1ccccc1F)N1CCOc2c(N3CCNCC3)cccc21,36.8
4,O=C(Nc1ccccc1)OCC(CN1CCCCC1)OC(=O)Nc1ccccc1 (stereo not drawn),54.4
5,COc1cc2c(cc1OC)-c1c(C)c3ccc(OC)c(OC)c3c[n+]1CC2,-0.7
6,CC1(C)C(=O)N(CCN2CCC(C(=O)c3ccc(F)cc3)CC2)c2ccccc21,-0.9
7,CC(C)(C)OC(=O)N[C@H]1CCCCC/C=C\[C@@H]2C[C@@]2(C(=O)NS(=O)(=O)C2CC2)NC(=O)[C@@H]2C[C@@H](OC(=O)N3Cc4cccc(F)c4C3)CN2C1=O,-2.86
8,CCCN(CCC)CCc1ccc(OC)c(OCCc2ccccc2)c1,32.6
9,CCC(C/C=C/c1ccccc1)(c1ccccc1)N(C)CC1CC1 (stereo not drawn),27.7
10,N=C(Nc1ccccc1)Nc1ccccc1,0.43
11,CCN1CCN(C(=O)Cc2ccc(Nc3ncc(F)c(Nc4ccc(C(=O)Nc5ccccc5Cl)cc4)n3)cc2)CC1,8.87
12,CCN(CC)CC1CCCCN1CC(=O)N1c2ccccc2C(=O)Nc2cccnc21 (stereo not drawn),-1.37
13,CC#CCC(C)[C@H](O)/C=C/[C@@H]1[C@H]2C/C(=C/CCCC(=O)O)C[C@H]2C[C@H]1O (stereo partly drawn),0.07
14,NC(=O)Nc1sc(-c2ccc(F)cc2)cc1C(N)=O,-0.84
15,Cn1c2cc(S(C)=O)sc2c2cnn(Cc3cccc(N)c3)c(=O)c21 (stereo not drawn),-1.69
16,CCN(CC)CCNC(=O)c1ccc(I)cc1,2.74
17,CC(O)(CS(=O)(=O)c1ccc(F)cc1)C(=O)Nc1ccc(C#N)c(C(F)(F)F)c1 (stereo not drawn),1.82
18,C[C@@H]1O[C@@H](OC[C@H]2O[C@@H](Oc3c(-c4ccc(O)c(O)c4)oc4cc(O)cc(O)c4c3=O)[C@H](O)[C@@H](O)[C@@H]2O)[C@H](O)[C@H](O)[C@H]1O,-1.31
19,CCCCC(CC)CCC(CC(C)C)OS(=O)(=O)[O-] (stereo not drawn),-1.42
20,CCCC(=O)Nc1ccc(OCC(O)CNC(C)C)c(C(C)=O)c1 (stereo not drawn),-4.7
21,C[C@]12Cc3cn[nH]c3C[C@@H]1CC[C@@H]1[C@@H]2CC[C@@]2(C)[C@H]1CC[C@]2(C)O,-1.1

row,SMILES,result_ITMP [%]
1,CN(C)C(=O)N[C@H]1CC[C@H](CCN2CCN(c3cccc(Cl)c3Cl)CC2)CC1,-1.5
2,N[C@@H]1CCN(O)C1=O,-6.32
3,CC(=O)Nc1ccc(OCC(O)CNC(C)C)cc1 (stereo not drawn),-0.54
4,O=C1NN(C(=O)Nc2ccc(Br)cc2)[C@@H](c2ccccc2)[C@@H]1c1ccccc1,11.2
5,CCn1cnc(C(=O)NC)c1C(=O)NC,-1.53
6,C/C=C\C1=C(C(=O)O)N2C(=O)C(NC(=O)C(N)c3ccc(O)cc3)C2SC1 (stereo not drawn),2.54
7,Cc1oc(=O)oc1CN1CCN(c2cc3c(cc2F)c(=O)c(C(=O)O)c2n3C(C)S2)CC1 (stereo not drawn),-2.04
8,C/C(O)=C(\C#N)C(=O)Nc1ccc(C(F)(F)F)cc1,0.72
9,COc1nc(C)cnc1NS(=O)(=O)c1cccnc1-c1ccc(-c2nnco2)cc1,-5.68
10,C/C(=N\NC(=N)N)c1cc(NC(=O)CCCCCCCCC(=O)Nc2cc(/C(C)=N/NC(=N)N)cc(/C(C)=N/NC(=N)N)c2)cc(/C(C)=N/NC(=N)N)c1,-7.21
11,OC[C@H]1O[C@@H]2O[C@H]3[C@H](O)[C@@H](O)[C@@H](O[C@H]4[C@H](O)[C@@H](O)[C@@H](O[C@H]5[C@H](O)[C@@H](O)[C@@H](O[C@H]6[C@H](O)[C@@H](O)[C@@H](O[C@H]7[C@H](O)[C@@H](O)[C@@H](O[C@H]8[C@H](O)[C@@H](O)[C@@H](O[C@H]1[C@H](O)[C@H]2O)O[C@@H]8CO)O[C@@H]7CO)O[C@@H]6CO)O[C@@H]5CO)O[C@@H]4CO)O[C@@H]3CO,-4.2
12,Cc1cc(OI)c(C(C)C)cc1-c1cc(C(C)C)c(OI)cc1C,1.31
13,Cc1nc(N(C)C(=O)Cc2ccc(-c3ccccn3)cc2)sc1S(N)(=O)=O,1
14,CC(=O)OCC(=O)[C@@]12OC3(CCCC3)O[C@@H]1C[C@H]1[C@@H]3CCC4=CC(=O)C=C[C@]4(C)[C@@]3(F)[C@@H](O)C[C@@]12C,-2.65
15,COc1ccc(CC(=O)NC(N/C(=N/C#N)Nc2cccc3ncccc23)C(C)(C)C)cc1OC (stereo not drawn),-2
16,CCN1CCCC1=O,8.03
17,NS(=O)(=O)Oc1ccc2c3c(c(=O)oc2c1)CCCCC3,0.16
18,N[C@@H](CC(=O)N1CCn2c(nnc2C(F)(F)F)C1)Cc1cc(F)c(F)cc1F,4.25
19,CO/N=C(/C(=O)N[C@@H]1C(=O)N2C(C(=O)[O-])=C(CSc3nc(=O)c([O-])nn3C)CS[C@H]12)c1csc(N)n1,-8.18
20,Cn1cc(C2=C(c3cn(CCCSC(=N)N)c4ccccc34)C(=O)NC2=O)c2ccccc21,15.8
21,O=C(NCc1ccc2c(c1)OCO2)c1c(Cl)cccc1Cl,-2

row,SMILES,result_ITMP [%]
1,COCCCOc1ccnc(CS(=O)c2nc3ccccc3[n-]2)c1C (stereo not drawn),-0.77
2,C[C@@H]1O[C@@H](O[C@H]2[C@H](Oc3cc(O)c4c(c3)O[C@H](c3ccc(O)cc3)CC4=O)O[C@H](CO)[C@@H](O)[C@@H]2O)[C@H](O)[C@H](O)[C@H]1O,3.7
3,CCOC(=O)c1cncn1[C@H](C)c1ccccc1,-4.52
4,COC(=O)[C@@H](N)Cc1ccc(O)c(O)c1,-5.89
5,C[C@]12CCC(=O)C=C1C=C[C@@H]1[C@@H]2CC[C@@]2(C)[C@H]1CC[C@@]21CCC(=O)O1,6.9
6,CC1CCc2c(cc(Br)c(F)c2Br)N1C=O (stereo not drawn),-1.34
7,C[C@]12CC[C@@H]3c4ccc(O)cc4C[C@@H](CCCCCCCCCS(=O)CCCC(F)(F)C(F)(F)F)C3[C@@H]1CC[C@@H]2O (stereo partly drawn),-0.13
8,Cc1cc2c(cc1CC(=O)c1sccc1S(=O)(=O)[N-]c1onc(C)c1Cl)OCO2,-1.86
9,CC1(C)CC(=O)c2c(C(F)(F)F)nn(-c3ccc(C(N)=O)c(N[C@H]4CC[C@H](OC(=O)CN)CC4)c3)c2C1,1.95
10,CS(=O)(=O)Oc1ccc2c(NC(N)=O)c(C(=O)c3ccc(Cl)cc3Cl)oc2c1,-6.53
11,CC1(C)[C@@H](O)CC[C@]2(C)[C@H]3C(=O)C=C4[C@@H]5C[C@@](C)(C(=O)O)CC[C@]5(C)CC[C@@]4(C)[C@]3(C)CC[C@@H]12,-4.77
12,CN(C)c1ccc(/C=C2\CCCN=C2c2cccnc2)cc1,9.85
13,Nc1ccncc1N,-1.71
14,CC[C@@H](CO)NC(=O)[C@@H]1C=C2c3cccc4[nH]cc(c34)C[C@H]2N(C)C1,5.79
15,O=C(O)c1ccc(NC(=O)[C@H](Cc2ccc(O)cc2)NC(=O)c2ccccc2)cc1,-5.89
16,Oc1ccc2ccccc2c1Cc1c(O)ccc2ccccc12,-2.53
17,CCC1(C2=NCCN2)Cc2ccccc2O1 (stereo not drawn),0.77
18,O[C@@](Cc1nc(CC2(C(F)(F)F)CC2)c[nH]1)(c1ccc(-n2cccn2)cc1)C(F)(F)F,0.81
